Reference: paper PMC12820563, “FoxP3 forms a head-to-head dimer in vivo and stabilizes its multimerization on adjacent microsatellites”
Some of the results follow.

Each sequence was assayed against T1, MBP-FoxP1dN (Mus musculus, UniProt P58462 326-579) (assay: PD-seq (MBP pull-down with sequencing); 20 mM Tris-HCl pH 7.5, 100 mM NaCl, 1.5 mM MgCl2, 0.4 uM protein, 0.1 uM dsDNA library, 30 min, room temperature, amylose pull-down; high values mean tight binding). Details: protein: recombinant; tags: His6-MBP; chain copies: 2; dsDNA, one strand shown.
T1 sequence: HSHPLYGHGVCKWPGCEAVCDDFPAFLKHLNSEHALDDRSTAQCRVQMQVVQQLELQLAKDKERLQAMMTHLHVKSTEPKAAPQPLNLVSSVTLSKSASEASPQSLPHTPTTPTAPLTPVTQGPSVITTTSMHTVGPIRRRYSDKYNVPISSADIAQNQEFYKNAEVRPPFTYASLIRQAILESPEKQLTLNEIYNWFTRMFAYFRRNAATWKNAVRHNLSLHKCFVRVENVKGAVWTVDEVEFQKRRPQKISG
In short: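 The N-terminus-lacking fragment of mouse FoxP3 or FoxP1 carried a His6-MBP tag and was expressed in E. coli. At 0.4 µM it was incubated with 0.1 µM Klenow-filled degenerate double-stranded DNA library for 30 min at room temperature in Tris pH 7.5 buffer with NaCl and MgCl2, and complexes were caught on amylose resin, washed three times, released with proteinase K, PCR-barcoded and Illumina-sequenced. Binding is reads-per-million enrichment of pull-down over input with replicates pooled.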

Row | Sequence | binding signal
1 | GATGATTGTTCTCCCAGCTGATGAATTCCGCCCCTCGAGTAAACAAATTTTCCTAATCTTTCTGTTCAAGCGCCATCTAC | 0.755 RPM ratio (pull-down/input)
2 | GATGATTGTTCTCCCAGCTGATGAATTCAGTCGCTCGAGTAAACAAATTTTCCTAATCTTTCTGTTCAAGCGCCATCTAC | 0.815 RPM ratio (pull-down/input)
3 | GATGATTGTTCTCCCAGCTGATGAATTAACTTTTTCGAGTAAACAAATTTTCCTAATCTTTCTGTTCAAGCGCCATCTAC | 0.806 RPM ratio (pull-down/input)
4 | GATGATTGTTCTCCCAGCTGATGAATTACCGGTCTCGAGTAAACAAATTTTCCTAATCTTTCTGTTCAAGCGCCATCTAC | 0.832 RPM ratio (pull-down/input)
5 | GATGATTGTTCTCCCAGCTGATGAATTTCGTCCATCGAGTAAACAAATTTTCCTAATCTTTCTGTTCAAGCGCCATCTAC | 0.922 RPM ratio (pull-down/input)
6 | GATGATTGTTCTCCCAGCTGATGAATTTAAGCCCTCGAGTAAACAAATTTTCCTAATCTTTCTGTTCAAGCGCCATCTAC | 0.806 RPM ratio (pull-down/input)
7 | GATGATTGTTCTCCCAGCTGATGAATTACTACTATCGAGTAAACAAATTTTCCTAATCTTTCTGTTCAAGCGCCATCTAC | 1.24 RPM ratio (pull-down/input)
8 | GATGATTGTTCTCCCAGCTGATGAATTCTTCTGCTCGAGTAAACAAATTTTCCTAATCTTTCTGTTCAAGCGCCATCTAC | 0.822 RPM ratio (pull-down/input)
9 | GATGATTGTTCTCCCAGCTGATGAATTACAAAATTCGAGTAAACAAATTTTCCTAATCTTTCTGTTCAAGCGCCATCTAC | 1.37 RPM ratio (pull-down/input)
10 | GATGATTGTTCTCCCAGCTGATGAATTGTACAGGTCGAGTAAACAAATTTTCCTAATCTTTCTGTTCAAGCGCCATCTAC | 0.868 RPM ratio (pull-down/input)
11 | GATGATTGTTCTCCCAGCTGATGAATTACGCTTTTCGAGTAAACAAATTTTCCTAATCTTTCTGTTCAAGCGCCATCTAC | 1.18 RPM ratio (pull-down/input)
12 | GATGATTGTTCTCCCAGCTGATGAATTATCAAGTTCGAGTAAACAAATTTTCCTAATCTTTCTGTTCAAGCGCCATCTAC | 1.04 RPM ratio (pull-down/input)
13 | GATGATTGTTCTCCCAGCTGATGAATTCGAGGAGTCGAGTAAACAAATTTTCCTAATCTTTCTGTTCAAGCGCCATCTAC | 0.715 RPM ratio (pull-down/input)
14 | GATGATTGTTCTCCCAGCTGATGAATTTAGGCCGTCGAGTAAACAAATTTTCCTAATCTTTCTGTTCAAGCGCCATCTAC | 0.94 RPM ratio (pull-down/input)
15 | GATGATTGTTCTCCCAGCTGATGAATTCGGGTGCTCGAGTAAACAAATTTTCCTAATCTTTCTGTTCAAGCGCCATCTAC | 0.765 RPM ratio (pull-down/input)
16 | GATGATTGTTCTCCCAGCTGATGAATTCAGCGGCTCGAGTAAACAAATTTTCCTAATCTTTCTGTTCAAGCGCCATCTAC | 0.756 RPM ratio (pull-down/input)

Row | Sequence | binding signal
17 | GATGATTGTTCTCCCAGCTGATGAATTAATCGCTTCGAGTAAACAAATTTTCCTAATCTTTCTGTTCAAGCGCCATCTAC | 1.05 RPM ratio (pull-down/input)
18 | GATGATTGTTCTCCCAGCTGATGAATTCATGCAATCGAGTAAACAAATTTTCCTAATCTTTCTGTTCAAGCGCCATCTAC | 1.26 RPM ratio (pull-down/input)
19 | GATGATTGTTCTCCCAGCTGATGAATTGTTGCGTTCGAGTAAACAAATTTTCCTAATCTTTCTGTTCAAGCGCCATCTAC | 1.55 RPM ratio (pull-down/input)
20 | GATGATTGTTCTCCCAGCTGATGAATTTAACGTGTCGAGTAAACAAATTTTCCTAATCTTTCTGTTCAAGCGCCATCTAC | 0.967 RPM ratio (pull-down/input)
21 | GATGATTGTTCTCCCAGCTGATGAATTTAGTATGTCGAGTAAACAAATTTTCCTAATCTTTCTGTTCAAGCGCCATCTAC | 1.09 RPM ratio (pull-down/input)
22 | GATGATTGTTCTCCCAGCTGATGAATTCATGATATCGAGTAAACAAATTTTCCTAATCTTTCTGTTCAAGCGCCATCTAC | 1.06 RPM ratio (pull-down/input)
23 | GATGATTGTTCTCCCAGCTGATGAATTTTTCCTTTCGAGTAAACAAATTTTCCTAATCTTTCTGTTCAAGCGCCATCTAC | 0.883 RPM ratio (pull-down/input)
24 | GATGATTGTTCTCCCAGCTGATGAATTTTCGCTCTCGAGTAAACAAATTTTCCTAATCTTTCTGTTCAAGCGCCATCTAC | 0.91 RPM ratio (pull-down/input)
25 | GATGATTGTTCTCCCAGCTGATGAATTAGTGCGTTCGAGTAAACAAATTTTCCTAATCTTTCTGTTCAAGCGCCATCTAC | 1.1 RPM ratio (pull-down/input)
26 | GATGATTGTTCTCCCAGCTGATGAATTTGTAGGGTCGAGTAAACAAATTTTCCTAATCTTTCTGTTCAAGCGCCATCTAC | 0.882 RPM ratio (pull-down/input)
27 | GATGATTGTTCTCCCAGCTGATGAATTGTAAAGCTCGAGTAAACAAATTTTCCTAATCTTTCTGTTCAAGCGCCATCTAC | 0.873 RPM ratio (pull-down/input)
28 | GATGATTGTTCTCCCAGCTGATGAATTCCGCCAGTCGAGTAAACAAATTTTCCTAATCTTTCTGTTCAAGCGCCATCTAC | 0.747 RPM ratio (pull-down/input)
29 | GATGATTGTTCTCCCAGCTGATGAATTTTAGTAATCGAGTAAACAAATTTTCCTAATCTTTCTGTTCAAGCGCCATCTAC | 1.75 RPM ratio (pull-down/input)
30 | GATGATTGTTCTCCCAGCTGATGAATTCTAGACGTCGAGTAAACAAATTTTCCTAATCTTTCTGTTCAAGCGCCATCTAC | 0.874 RPM ratio (pull-down/input)
31 | GATGATTGTTCTCCCAGCTGATGAATTCGCCTTATCGAGTAAACAAATTTTCCTAATCTTTCTGTTCAAGCGCCATCTAC | 0.88 RPM ratio (pull-down/input)
32 | GATGATTGTTCTCCCAGCTGATGAATTTCGTCGGTCGAGTAAACAAATTTTCCTAATCTTTCTGTTCAAGCGCCATCTAC | 0.849 RPM ratio (pull-down/input)
